PubChem BioAssay AID1476 (National Center for Advancing Translational Sciences (NCATS), 2009)
In all, about 200,000 compounds went through this assay and about 4,500 (2.2%) were called active. Inconclusive results, whose numbers are uncertain, are shown with a selection of clear calls. Calls follow the shape of the dose curve; as a rule, active = well fitted inhibition curve with a large enough effect; inconclusive = small, poorly fitted or top-dose-only effect, or effect the other way; inactive = flat fitted curve, though single readings scatter. Potencies beside an inconclusive call are fits to weak or partial responses and may not hold up.
Also: nearly all actives have a fitted effect of over 40% in size.
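For max response, negative = inhibition in this document: plate controls were enzyme without inhibitor for no effect and buffer without enzyme for full effect.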
Potency is read from the fitted curve at half-maximal effect; tags tell the direction and shape of the fitted curve.

Each compound was assayed against Cruzipain (Trypanosoma cruzi) (UniProt P25779) (assay: qHTS Assay for Promiscuous and Specific Inhibitors of Cruzain (without detergent)). Settings: purified cruzain, Z-FR-AMC fluorescence, no detergent.
Sequence of UniProt P25779 (P25779 whole entry, looked up): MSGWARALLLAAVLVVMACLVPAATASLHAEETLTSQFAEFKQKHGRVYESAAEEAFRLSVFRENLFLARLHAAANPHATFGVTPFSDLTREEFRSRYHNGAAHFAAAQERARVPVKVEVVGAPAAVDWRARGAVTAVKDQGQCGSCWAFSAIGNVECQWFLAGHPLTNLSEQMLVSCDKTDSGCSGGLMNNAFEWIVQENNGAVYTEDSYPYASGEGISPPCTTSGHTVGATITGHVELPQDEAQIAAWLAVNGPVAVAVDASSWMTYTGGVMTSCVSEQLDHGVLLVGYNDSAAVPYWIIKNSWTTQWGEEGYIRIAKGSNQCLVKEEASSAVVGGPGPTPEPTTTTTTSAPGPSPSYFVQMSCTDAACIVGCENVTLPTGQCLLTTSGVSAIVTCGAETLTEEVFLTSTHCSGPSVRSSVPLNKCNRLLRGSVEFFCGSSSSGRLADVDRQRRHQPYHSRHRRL
Method in brief: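 Purified cruzain at 1.5 nM, pre-incubated 15 min with compound at room temperature in 100 mM sodium acetate pH 5.5, 5 mM DTT, 0.00005% Triton X-100. Reaction started with 2 uM Z-FR-AMC; AMC fluorescence increase over 60 s gives rate.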
In the case of `COc1ccc(C2C=C(c3ccc(F)cc3)Nc3nc(-c4ccc(Cl)cc4)nn32)cc1` (stereo not given), the max response, negative = inhibition was inactive: -21.9%. With `COc1ccc(NC(=O)c2ccc3c(c2)N(Cc2cccc(Cl)c2)C(=O)c2ccccc2S3=O)cc1Cl` (stereo not given) the Potency was inconclusive: 7.94 µM [inhibitor, single point]. With `Cc1cccc(N2CCN(CC(=O)Nc3ccc(-n4cnnn4)cc3)CC2)c1C` the Potency was inconclusive: 31.6 µM [inhibitor, single point]. In the case of `Cc1ccc(S(=O)(=O)Oc2ccc(C3C4=C(CCCC4=O)N(CCC(=O)O)C4=C3C(=O)CCC4)cc2Cl)cc1`, the Potency was inconclusive: 31.6 µM [activator, single point]. With `CCc1nnc2c(N3CCN(c4cccc(C)c4)C(C)C3)nc3ccccc3n12` (stereo not given) the Potency was inconclusive: 25.1 µM [activator, single point]. For `COc1ccc(NC(=S)NC(NC(=O)C(C)C)C(Cl)(Cl)Cl)c([N+](=O)[O-])c1` (stereo not given), the Potency was inconclusive: 39.8 µM [inhibitor, single point]. In the case of `CCN(CC)C(=O)Cn1c(=O)n(-c2ccc(Cl)c(Cl)c2)c(=O)c2c(C)c(C(=O)N(CC)CC)sc21`, the Potency was inconclusive: 25.1 µM [activator, partial curve]. In the case of `Cc1cccc(S(=O)(=O)Nc2cccc(-c3ccc(N4CCCCC4)nn3)c2)c1`, the Potency was inconclusive: 39.8 µM [inhibitor, single point]. For `COc1ccc(/C=N/NC(=O)c2cccc([N+](=O)[O-])c2)cc1OC(=O)c1ccccc1`, the Potency was active: 25.1 µM. For `O=C(NCCc1c[nH]c2ccccc12)c1ccc(S(=O)(=O)NCc2ccco2)cc1`, the Potency was inconclusive: 39.8 µM [inhibitor, single point]. For `COc1ccc(CNC(=O)c2cnc3sc(N4CCC(C)CC4)nn3c2=O)c(OC)c1`, the max response, negative = inhibition was inactive: 2.21%. For `Cc1ccc(N2C(=O)CC(c3ccccc3F)C3=C2COC3=O)cc1Cl` (stereo not given), the max response, negative = inhibition was inactive: -9.88%. In the case of `COc1ccc(-c2c(C#N)c(SCC(=O)Nc3cccc(Cl)c3)nc(C)c2C(=O)Nc2ccccc2)cc1OC`, the Potency was inconclusive: 39.8 µM [inhibitor, single point]. `COc1ccc(CCNC(=O)CCC(=O)N2CCN(S(=O)(=O)c3ccc(Cl)cc3)CC2)cc1OC` was tested, and the Potency was inconclusive: 39.8 µM [activator, single point]. With `Cc1ccc(C(=O)N(Cc2ccco2)Cc2sccc2C)cc1` the max response, negative = inhibition was inactive: 2.57%. In the case of `Cc1nc(N2CCOCC2)c2c(C(=O)N3CCN(c4ccccc4F)CC3)c(C)oc2n1`, the max response, negative = inhibition was inactive: 18.4%. For `Cc1ccc(CN2COc3ccc4c(C)cc(=O)oc4c3C2)cc1`, the Potency was inconclusive: 39.8 µM [inhibitor, single point]. For `O=C(Nc1cc(Cl)ccc1Cl)c1cc(S(=O)(=O)NCCc2ccccc2)ccc1F`, the max response, negative = inhibition was inactive: 3.68%. In the case of `O=Cc1ccc(Cl)cc1Cl`, the max response, negative = inhibition was inactive: -8.69%. With `O=C(O)CN(CCN(CC(=O)O)CC(=O)O)CC(=O)O.[Mn]` the max response, negative = inhibition was inactive: 7.15%. For `O=C(NCc1ccc2c(c1)OCO2)c1ccc2c(c1)N(Cc1c(F)cccc1Cl)C(=O)CS2`, the Potency was inconclusive: 39.8 µM [inhibitor, single point]. In the case of `COc1ccc(Nc2oc(-c3ccc(COc4cccc(C)c4)o3)nc2C#N)cc1`, the Potency was active: 15.8 µM. With `CCSc1nnc(NC(=O)CSc2nnc(Cc3cccn3C)n2CCc2ccccc2)s1` the Potency was inconclusive: 25.1 µM [activator, single point]. `COC(=O)COc1ccc(C2C(C(=O)OC)=C(C)NC3=C2C(=O)c2ccccc23)cc1OC` (stereo not given) was tested, and the Potency was inconclusive: 39.8 µM [activator, single point]. In the case of `CC(C)c1ccc(C2Sc3ccccc3NC3=C2C(=O)c2ccccc23)cc1` (stereo not given), the Potency was active: 10 µM. With `Cn1c(SCC(=O)N2c3ccccc3Sc3ccccc32)nc2ccccc21` the Potency was inconclusive: 25.1 µM [inhibitor, single point]. With `Cc1nc(N2CCN(S(=O)(=O)c3ccccc3)CC2)c2c3c(sc2n1)CC(C)CC3` (stereo not given) the Potency was inconclusive: 12.6 µM [inhibitor, partial curve, poor fit]. For `Cc1cn(C)c(CC(=O)NCc2cccc(Cl)c2)c1C(=O)O`, the max response, negative = inhibition was inactive: -10.2%. With `O=C(OC(C(=O)NCC1CCCO1)c1ccc(F)cc1)c1ccco1` (stereo not given) the max response, negative = inhibition was inactive: 0.209%. `N#C/C(=C/c1ccc(-c2ccc(S(N)(=O)=O)cc2)o1)C(=O)Nc1ccccc1` was tested, and the Potency was inconclusive: 31.6 µM [inhibitor, single point]. In the case of `CCC1CSC(Nc2ccc(C(=O)/C=C/c3ccc(Oc4ccccc4)cc3)cc2)=N1` (stereo not given), the Potency was inconclusive: 39.8 µM [inhibitor, single point]. With `NC(Cc1cc(I)c(Oc2ccc(O)c(I)c2)c(I)c1)C(=O)O` (stereo not given) the max response, negative = inhibition was inactive: -10.1%. For `O=C(N/N=C/c1cc(Cl)cc([N+](=O)[O-])c1O)NC12CC3CC(CC(C3)C1)C2`, the Potency was inconclusive: 25.1 µM [activator, partial curve]. `CCNc1ccc(C(=O)OCC)cc1NC(=O)c1cc(S(=O)(=O)N2CCOCC2)ccc1C` was tested, and the Potency was inconclusive: 31.6 µM [activator, single point]. In the case of `Cc1onc(-c2ccccc2)c1C(=O)Nc1nnc(COc2ccc(Cl)cc2)s1`, the Potency was inconclusive: 31.6 µM [inhibitor, single point]. With `CCOC(=O)c1ccc(-c2n[nH]c(=O)c3ccccc23)cc1` the Potency was inconclusive: 39.8 µM [activator, single point]. `O=C1CCCc2cc(S(=O)(=O)NCC3CCC(C(=O)Nc4ccc(Cl)cc4)CC3)ccc2N1` (stereo not given) was tested, and the max response, negative = inhibition was inactive: -11.8%. With `Cc1cc(Nc2ccc(Br)cc2)n2nc(-c3ccccc3C)nc2n1` the max response, negative = inhibition was inactive: -17.8%. For `O=S(=O)(c1ccc2ccccc2c1)N1CCN(S(=O)(=O)N2CCCCC2)CC1`, the Potency was inconclusive: 39.8 µM [inhibitor, single point]. `O=C(CSc1nc2ccsc2c(=O)n1Cc1ccc(F)cc1)NCc1ccc(Cl)cc1` was tested, and the max response, negative = inhibition was inactive: 1.31%. `CS(=O)(=O)N1CCc2cc(-c3csc(NC(=O)Cc4cccs4)n3)ccc21` was tested, and the Potency was active: 20 µM. In the case of `COc1ccc(NS(=O)(=O)c2cccc(N/C(=N\S(=O)(=O)c3ccccc3)c3ccc(F)cc3)c2)cc1`, the max response, negative = inhibition was inactive: -4.56%. In the case of `COc1ccc2c(c1)C1C=CCC1C(c1cc3c(cc1Br)OCO3)N2` (stereo not given), the Potency was active: 25.1 µM. In the case of `CCN(CC)CCNC(=O)CCn1c(=O)c2cccn2c2cccnc21`, the max response, negative = inhibition was inactive: -20.1%. With `Cc1ccc2nc(-c3ccc(NC(=O)Cc4ccccc4)cc3)sc2c1` the Potency was inconclusive: 5.01 µM [inhibitor, single point]. For `COc1ccc(-c2cc3nc(C)c(CCC(=O)NCc4ccco4)c(C)n3n2)c(OC)c1`, the Potency was inconclusive: 39.8 µM [activator, single point]. In the case of `COc1ccc2ccc3c(c2c1)N=CC1(O3)N(C)c2ccccc2C1(C)C` (stereo not given), the Potency was inconclusive: 25.1 µM [inhibitor, single point]. `CC(C)c1ccc(NC(=O)CSc2nc3c(c(=O)[nH]2)CCC3)cc1` was tested, and the Potency was active: 12.6 µM. For `COC(=O)c1nn(C23CC4CC(CC(C4)C2)C3)c2c1C(=O)N(c1ccc(Br)cc1)C2=O`, the Potency was inconclusive: 31.6 µM [inhibitor, single point]. For `CCOC(=O)C1=C(CN2CCN(c3ccc(Cl)cc3)CC2)NC(=O)NC1c1ccc(OC)cc1` (stereo not given), the max response, negative = inhibition was inactive: -2.63%. `COc1ccc(N2CCN(C(=O)CSc3nnc4c(C)cc5cc(C)ccc5n34)CC2)cc1` was tested, and the Potency was inconclusive: 31.6 µM [activator, single point]. For `Cc1ccc2cc(C)c3nnc(SCC(=O)NCc4ccco4)n3c2c1`, the Potency was inconclusive: 39.8 µM [activator, single point]. In the case of `COc1cc(OC)cc(-c2nnc(SCC(=O)N(C(C)C)C(C)C)o2)c1`, the Potency was inconclusive: 31.6 µM [activator, single point]. `CN(Cc1ccccc1)c1nc2c(c(=O)[nH]c(=O)n2C)n1CCOc1ccccc1` was tested, and the Potency was inconclusive: 39.8 µM [activator, single point]. For `O=C(CNC(=O)c1ccc2ccccc2c1)OCC(=O)N1CCN(S(=O)(=O)c2ccc3ccccc3c2)CC1`, the Potency was inconclusive: 39.8 µM [inhibitor, single point]. With `O=C(COc1ccc(Br)cc1Br)Nc1ccc(S(=O)(=O)Nc2ncccn2)cc1` the max response, negative = inhibition was inactive: -0.477%. For `CCOC(=O)N1CCC(NC(=O)c2cccc3c2C(=O)N(c2ccc(OC)cc2)C3)CC1`, the Potency was inconclusive: 39.8 µM [activator, single point]. `Cn1c(N/N=C/c2ccccc2)nc2sc3c(c2c1=O)CCC3` was tested, and the Potency was inconclusive: 39.8 µM [activator, single point]. In the case of `C=CCn1c(COc2cc(C)ccc2C(C)C)nnc1SCC(=O)c1c(N)n(C)c(=O)n(C)c1=O`, the Potency was inconclusive: 20 µM [activator, single point]. With `CCOC(=O)N1CCN(Cc2nc3c(c(=O)n(C)c(=O)n3C)n2Cc2ccc(F)cc2)CC1` the Potency was inconclusive: 25.1 µM [activator, single point]. In the case of `COc1cc(NC(=O)c2ccc(COc3ccccc3Br)o2)cc(OC)c1OC`, the Potency was inconclusive: 39.8 µM [activator, single point]. In the case of `CCOc1c(CNCCN2CCOCC2)cccc1OC`, the max response, negative = inhibition was inactive: -0.973%. With `c1csc(CNc2nc(-c3ccc4c(c3)OCO4)nc3ccccc23)c1` the Potency was inconclusive: 39.8 µM [inhibitor, single point]. With `CCOc1ccccc1C(=O)N(Cc1ccc(N(C)C)cc1)CC1CCCO1` (stereo not given) the max response, negative = inhibition was inactive: 0.894%. For `O=C(OCC(=O)N1CCc2ccccc21)c1c2c(nc3ccccc13)CCCC2`, the Potency was inconclusive: 39.8 µM [inhibitor, single point].
